Laboratory results: a collection of fitness landscapes (doi:10.1016/j.celrep.2020.107928)
The full ranking holds about 81,000 sequences; the median of “one-hybrid fitness for binding parS DNA” is about -0.17, and the highest 2% start at about 0.51. This is one part of the list.

B1: Caulobacter ParB omega fusion; a variant is named by its letters at X, in order, B8GW30 (parent)
chain: MESVVVGEPGMSEGRRGLGRGLSALLGEVDAAPAQAPGEQLGGSREAPIEILQRNPDQPRRTFREEDLEDLSNSIREKGVLQPILVRPSPDTAGEYQIVAGERAWRAAQRAGLKTVPIMVRELDDLAVLEIGIIENVQRADLNVLEEALSYKVLMEKFERTQENIAQTIGKSXSHVANXMRLLXLPDEVQSYLVSGELTAXHARAIAAAADPVALAKQIIEGGLSVRETEALARKAPNLSAGKSKGGRPPRVKDTDTQALESDLSSVLGLDVSIDHRGSTGTLTITYATLEQLDDLCNRLTRGI

Variants of: B1
Test: one-hybrid fitness for binding parS DNA (scaled: cognate 1, non-cognate 0); higher = stronger binding
Conditions: with parS DNA site
Procedure, shortened: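 Bacterial one-hybrid selection in E. coli USO rpoZ- hisB- pyrF- with a HIS3 reporter carrying the site 19 bp from the promoter, screening Caulobacter ParB libraries with four specificity codons randomised (NNS). Cells grew 48 hours at 37°C on M9-minus-histidine plus 0.1 mM IPTG and 5 mM 3-AT. Plasmids before and after selection were Illumina-sequenced, three replicate libraries pooled, and variants under 10 reads dropped. Fitness is the log change in variant-to-wild-type read ratio, rescaled to cognate 1, non-cognate 0.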

one-hybrid fitness for binding parS DNA, 0.214:
RMSQ

one-hybrid fitness for binding parS DNA, 0.472:
RAHY

one-hybrid fitness for binding parS DNA, ≤ 0.2:
QHMK
WINT
LAFL
TVEY
DNQT
ANCR
RNIR
RGEL
FLTV
NDQG
EGDG
TPTA
QEPS
WVQT
QAGW
TQDT
IGAI
GHYR
TARS
FGKT
TEIL
LGPL
MIQN
ALRC
AFQL
QSRM
FSHY
AAMF
DVSR
LIPP
SINM
PRSA
AITK
RYEW
SCGV
WPWR
VQLP
SEDS
PYGE
YCCG
QKFA
ARWR
RMGR
PKHD
LTNG
MHLC
TIPI
RIEI
EMLG
IYFF
DFYR
PIES
TPKG
QTDM
ASRD
PSWQ
VQIC
GENW
CNLG
KEVK
HKYD
QRPI
QMAI
EYYG
EPPR
TTHA
SIFC
WWNK
YCYR
PTTP
THTD
SSSN
PDHA
IDLT
CIQD
DNMS
WTLP
TNVD
AQIF
DMTF
HSAC
TINT
ESPF
GATC
WPIS
TKLV
VAIW
TYLQ
DLTL
MTHW
QTIM
YTIM
QPVW
QSIN
KCHG
QDQY
MLFR
GVYG
LNFC
HQMP
MLHG
HMIV
IRIT
FHMG
TLWT
PSPM
IGDC
RFIR
KVMK
SPDW
GTIT
SQRA
MRSC
AGLP
YHKC
SIMT
DRLD
TNVI
GVPQ
FYIR
DTVR
PKKL
PVSD
TAQS
LKYR
TALM
QGQA
SNQC
TNCT
QHWN
VYSE
PMVD
TTFA
RHMQ
TKPL
HERM
STIS
FNSY
PAHA
KDKW

one-hybrid fitness for binding parS DNA, 0.901:
RIIC

one-hybrid fitness for binding parS DNA, 0.91:
RTST

one-hybrid fitness for binding parS DNA, 0.988:
RMGS

one-hybrid fitness for binding parS DNA, 0.923:
RCST

one-hybrid fitness for binding parS DNA, 0.934:
RLIG

one-hybrid fitness for binding parS DNA, 0.559:
RYDA

one-hybrid fitness for binding parS DNA, 0.304:
ACNA

one-hybrid fitness for binding parS DNA, 0.828:
RQVC

one-hybrid fitness for binding parS DNA, 0.329:
RQNH

one-hybrid fitness for binding parS DNA, 0.414:
RTEY

one-hybrid fitness for binding parS DNA, 0.967:
RHHG
